Experimental data taken from article PMC4336329 (PLoS ONE, 2015).
About 14,000 (4.5%) of roughly 310,000 compounds showed an effect of 50% or more. Effects have a minus sign here. The list shows a part of the results.

Target: human ether-à-go-go-related gene (hERG) potassium channel (human, UniProt Q12809)
Assay: primary screen, population patch clamp on CHO cells stably expressing hERG
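Further: peak tail current of the secondary pulse compared with the same well before compound.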

human ether-à-go-go-related gene (hERG) potassium channel, sequence (Q12809 whole entry, looked up): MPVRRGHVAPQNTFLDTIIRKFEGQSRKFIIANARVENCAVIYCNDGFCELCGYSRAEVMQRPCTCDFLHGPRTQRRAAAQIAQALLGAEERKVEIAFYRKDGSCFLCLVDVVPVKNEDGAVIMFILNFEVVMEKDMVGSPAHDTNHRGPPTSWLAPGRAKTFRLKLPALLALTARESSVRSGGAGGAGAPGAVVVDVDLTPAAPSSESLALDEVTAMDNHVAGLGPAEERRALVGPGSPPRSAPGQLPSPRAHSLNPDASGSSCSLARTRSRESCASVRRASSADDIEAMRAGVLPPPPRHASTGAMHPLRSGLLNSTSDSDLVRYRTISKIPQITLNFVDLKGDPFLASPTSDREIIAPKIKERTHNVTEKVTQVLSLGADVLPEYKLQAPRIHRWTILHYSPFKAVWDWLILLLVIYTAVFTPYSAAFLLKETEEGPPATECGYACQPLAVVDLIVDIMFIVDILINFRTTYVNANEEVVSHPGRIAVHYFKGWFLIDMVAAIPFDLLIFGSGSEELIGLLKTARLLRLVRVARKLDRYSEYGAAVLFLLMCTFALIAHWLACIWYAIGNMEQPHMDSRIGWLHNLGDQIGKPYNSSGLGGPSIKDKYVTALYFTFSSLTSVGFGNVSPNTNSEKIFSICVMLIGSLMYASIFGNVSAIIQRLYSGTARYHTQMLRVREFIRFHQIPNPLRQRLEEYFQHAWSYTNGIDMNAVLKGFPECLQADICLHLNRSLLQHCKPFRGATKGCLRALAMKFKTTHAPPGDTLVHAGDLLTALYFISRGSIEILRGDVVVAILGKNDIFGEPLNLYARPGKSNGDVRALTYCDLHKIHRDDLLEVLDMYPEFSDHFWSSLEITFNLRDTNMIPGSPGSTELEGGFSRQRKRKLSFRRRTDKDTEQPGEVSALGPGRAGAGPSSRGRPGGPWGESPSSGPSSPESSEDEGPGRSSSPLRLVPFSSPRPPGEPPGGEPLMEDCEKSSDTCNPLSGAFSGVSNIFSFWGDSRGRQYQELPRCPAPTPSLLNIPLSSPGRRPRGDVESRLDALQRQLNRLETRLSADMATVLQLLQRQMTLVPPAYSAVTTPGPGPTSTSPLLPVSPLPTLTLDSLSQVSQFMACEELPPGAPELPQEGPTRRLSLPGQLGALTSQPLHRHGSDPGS

| SMILES | hERG current change (%, negative = inhibition) at 10uM [%] |
| --- | --- |
| CN(C)CCCNC(=O)c1cc(Br)ccc1O | 7.01 |
| CC(C)OC(=O)CSc1nnc(COc2ccc([N+](=O)[O-])cc2)n1C | -69.9 |
| Cc1[nH]c(=S)c(C#N)c(C)c1CCC#N | 17.6 |
| CON(c1nc(Cl)nc(N(C)C)n1)S(=O)(=O)c1ccc(C)cc1 | 6.43 |
| O=C(CSc1nnc(-c2ccccn2)n1Cc1ccccc1)N1CCOCC1 | -3.4 |
| CC(O)c1ccc2c(c1)OCCOCCN(C)CCOCCO2 (centres unmarked) | -1.64 |
| COC(=O)c1sccc1-n1cc(C#N)c(=O)n(C)c1=O | 17.9 |
| COc1ccc(CCNC(=O)C2CCN(S(=O)(=O)c3cccc4nonc34)CC2)cc1OC | -3.78 |
| COc1ccc(S(=O)(=O)N2CCN(C(=O)C3CCCO3)CC2)cc1 (centres unmarked) | 1.57 |
| CC(=O)N(Cc1ccccc1C)c1cccc(C)c1C | -2.94 |
| CN(CC(=O)Nc1ccc(Cl)cc1)CC(=O)Nc1ccc(F)c(F)c1F | -25.4 |
| Cc1cc(Cl)cc(Br)c1OCCCCn1cncn1 | -23.5 |
| COc1ccc2ccccc2c1/C=N/NC(=O)CC1(C)OCCCO1 | 3.31 |
| COCCn1c(SCc2nc3ccccc3c(=O)[nH]2)nnc1-c1ccncc1 | -4.64 |
| Cc1ccc(C)c(NS(=O)(=O)c2ccc(OCC(=O)N3CCOCC3)cc2)c1 | -7.34 |
| Cc1cc(NC(=O)CN2CCN(C/C=C/c3ccccc3)CC2)c([N+](=O)[O-])cc1C | -12 |
| Cc1cccc(C2=N/C(=C\c3cccs3)C(=O)O2)c1 | 28.6 |
| O=C(Nc1ccc(Cl)c(Cl)c1)C1CC(=O)N(c2ccc(Br)cc2)C1 (centres unmarked) | 11.1 |
| O=C(CSc1nnc(-c2cnccn2)n1Cc1ccco1)c1ccc(Cl)c(Cl)c1 | -47 |
| CC(=O)c1cnc2nc(SCc3cccc(C)c3)nn2c1C | -19.5 |
| CC(C)(C)C1CCC(=O)N(CCSc2ccccc2)CC1 (centres unmarked) | -38.9 |
| Cc1ccc(S(=O)(=O)N(C)c2ccc(C(=O)NCC(c3ccco3)N(C)C)cc2)cc1 (centres unmarked) | -8.64 |
| CCn1cc(CN2CCCC(C(=O)Nc3cccc(-c4cc5ccccc5[nH]4)c3)C2)c(C)n1 (centres unmarked) | -14.4 |

| SMILES | hERG current change (%, negative = inhibition) at 10uM [%] |
| --- | --- |
| CCCC(CCC)C(=O)Nc1c[nH]c(=O)[nH]c1=O | -2.66 |
| N/C(Cc1ccc([N+](=O)[O-])cc1)=N\OC(=O)COc1cccc2ccccc12 | -13.7 |
| CCN1CCN(c2ccc(N3CCN(S(=O)(=O)c4ccc(C)c([N+](=O)[O-])c4)CC3)nn2)CC1 | -56.6 |
| CCOC(=O)c1sc(=S)n(-c2cccc(OC)c2)c1N | -7.09 |
| COc1ccc(-n2c(COc3cccc4ccccc34)nnc2SCC#N)cc1 | -5.79 |
| COc1ccc(CN(C(=O)CSc2nnc(-c3ccc(F)cc3)o2)c2ccc(F)cc2)cc1 | -9.46 |
| CCOc1ccc(-c2cc(CCCC(=O)NCCCOC)no2)cc1 | -15.5 |
| Cc1ccccc1NC(=O)CCN1CCCCCC1 | 11.6 |
| Cc1ccc(S(=O)(=O)Nc2ccc(S(=O)(=O)Nc3ncccn3)cc2)cc1 | -3.43 |
| O=S(=O)(Nc1nc2ccccc2nc1Nc1ccc(N2CCOCC2)cc1)c1cc(Cl)ccc1Cl | -0.376 |
| COC(=O)Cn1cnc2sc3c(c2c1=O)CCCC3 | 8.7 |
| COc1ccc(CNC(=O)C(c2ccc(C)o2)N(Cc2cccs2)C(=O)Cc2cccs2)cc1 (centres unmarked) | 4.17 |
| NC(=O)COC(=O)c1oc2ccccc2c1CSc1ccc(Cl)cc1 | -4.62 |
| Cc1ccc(NC(c2ccccc2)c2nc3ccccc3[nH]c2=O)cc1 (centres unmarked) | -9.1 |
| COCCN(C(=O)COC(=O)CCC1CCCC1)c1c(N)n(Cc2ccccc2)c(=O)[nH]c1=O | -0.511 |
| COc1ccc(C(=O)C2CCCN(Cc3sc(N4CCCC4)nc3Cl)C2)c(OC)c1 (centres unmarked) | -49.7 |
| N#CN=C(N)c1ccccc1 | 0.592 |
| CCOc1cccc(CN2CCCC(C(=O)c3cc(Cl)ccc3OC)C2)c1O (centres unmarked) | -64.3 |
| COc1ccc(C(=O)NNC(=O)c2ccccc2[N+](=O)[O-])cc1 | 4.27 |
| Cc1ccc(S(=O)(=O)CCC(=O)Nc2nnc(-c3ccco3)o2)cc1 | 0.92 |
| CC(NC(=O)c1ccc(N(C)C)cc1)C(c1cccs1)N1CCN(C)CC1 (centres unmarked) | -8.33 |
| Cc1ccc(CNC(=O)C2CCN(S(=O)(=O)c3ccc(Br)s3)CC2)cc1 | 3.77 |
| CCOC(=O)C1CCN(C(=O)C2CCC(=O)N(Cc3cccc(C(F)(F)F)c3)C2)CC1 (centres unmarked) | -3.9 |

| SMILES | hERG current change (%, negative = inhibition) at 10uM [%] |
| --- | --- |
| CCN(C(=O)c1ccc(N2CC3CC(C2)c2cccc(=O)n2C3)c(NC(=O)c2ccncc2)c1)c1cccc(C)c1 (centres unmarked) | 6.84 |
| Cc1cccc(C(=O)N2CCCC(N3CCN(Cc4ccc5c(c4)OCO5)CC3)C2)n1 (centres unmarked) | 10.2 |
| CCOc1ccc(S(=O)(=O)N2CCOCC2)cc1NC(=O)CN1C(=O)NC(CC)(c2ccccc2)C1=O (centres unmarked) | -73.5 |
| Cc1ccc(/C=N/NC(=O)c2cccnc2)o1 | 20.8 |
| COc1ccc(Cl)cc1NC(=O)CN1CCN(S(=O)(=O)N2CCCCC2)CC1 | -9.48 |
| C/C(=C(\C#N)C(=O)NCc1ccccc1)N(C)C | 4.35 |
| CC(C)C(=O)N1CCN(c2ccc([N+](=O)[O-])cc2Cl)CC1 | -30.9 |
| Cc1cc(NC(=O)c2cc(-c3cccs3)nc3ccccc23)no1 | 0.926 |
| CCCn1c(SCC(=O)Nc2ccccc2CC)nnc1C(C)C | 3.75 |
| O=c1[nH]c(=S)[nH]c(O)c1N=Nc1ccc(SC(F)F)cc1 | -9.9 |
| N#Cc1nc(-c2ccccc2Cl)oc1NCc1ccco1 | -8.28 |
| O=C(Nc1ccc2c(c1)OCO2)C1CCN(c2ccc(S(=O)(=O)N3CCOCC3)cc2)CC1 | 7.9 |
| CC1(C)CC(=O)C2=C(C1)OC(N)=C(C#N)[C@@H]2c1ccccc1[N+](=O)[O-] | -17.2 |
| CC(=O)Nc1ccccc1NC(=O)c1ccccc1-c1ccccc1 | 10.1 |
| CCOc1ccccc1NC(=O)N1CCCC1C(=O)NCc1cccs1 (centres unmarked) | 10.2 |
| CN(C)S(=O)(=O)N1CCC(Cc2ccccc2)CC1 | -9.65 |
| CC1=CC(C)(C)N(S(=O)(=O)c2ccc(C)cc2)c2cc(C)ccc21 | -4.88 |
| CC(=O)Nc1nnc(C2=COCCO2)o1 | 16.4 |
| CN1CCN(C(=O)c2ccc(CN3CCOCC3)cc2)CC1 | 10.5 |
| COc1ccc(NC(=O)CCC(=O)N2CCCC2)c([N+](=O)[O-])c1 | 9.86 |
| Cc1nn(Cc2ccccc2)c(C)c1C(=O)OCC(=O)Nc1cc(S(C)(=O)=O)ccc1Cl | -1.75 |
| Cc1cccc(/C(N)=N/OC(=O)COc2ccccc2Cl)c1 | 4.39 |
| CCOC(=O)c1cnc(SSc2ncc(C(=O)OCC)c(N)n2)nc1N | 1.18 |

| SMILES | hERG current change (%, negative = inhibition) at 10uM [%] |
| --- | --- |
| COC(=O)/C=C1\SC(=Nc2ccc(OC)cc2)NC1=O | 6.99 |
| Cc1ccc(C)c(NC(=O)C(Sc2nc3ccc(C)cc3[nH]2)c2ccccc2)c1 (centres unmarked) | -2.75 |
| Cc1c(NC(=O)OCCNC(=O)COc2c(Cl)cccc2Cl)sc(=S)n1C | -6.16 |
| Cc1ccc(N(CCC#N)C(=O)CN2C(=O)NC(Cc3ccccc3)C2=O)cc1 (centres unmarked) | -11.1 |
| O=C(O)c1cc([N+](=O)[O-])ccc1N1CCCCC1 | -1.28 |
| Cc1ccc(-c2n[nH]c(=S)n2C)cc1Cl | 14.1 |
| O=C(CNCc1ccc(F)cc1)Nc1ccccc1[N+](=O)[O-] | -23.4 |
| COC(=O)c1ccc2[nH]cc(CCO)c2c1 | 17.1 |
| O=C(COC(=O)Cn1[nH]c(=O)c2ccccc2c1=O)NNC(=O)c1ccc(Br)cc1 | 5.77 |
| Cc1nc(-c2nc(CC(=O)NNC(=O)c3ccc(Cl)cc3)cs2)cs1 | -2.6 |
| COc1ccc2[nH]c3c(=O)n(Cc4ccncc4)cnc3c2c1 | -11 |
| CC1=C(C(=O)OCc2ccccc2)C(c2ccc3ccccc3c2)NC(=O)N1CCCC(=O)O (centres unmarked) | -12 |
| COc1cc(OC)cc(C(=O)NCc2cccnc2)c1 | 5.4 |
| C=CCn1c(=S)sc2c(=O)[nH]c(C)nc21 | 8.05 |
| CSc1snc(SCC(N)=O)c1C#N | 20.6 |
| COc1ccc(-c2nnco2)cc1OC | -6.94 |
| COc1ccc(NC(=S)N(CCN(C)C)C(C)c2ccncc2)cc1Cl (centres unmarked) | -59.9 |
| N#Cc1ccc(-c2cccnc2)nc1SCC(=O)Nc1sc2c(c1C#N)CCC2 | -3.44 |
| CN1CCN(CCC(=O)Nc2ccccc2Cl)CC1 | -1.75 |
| CCCCn1c(SCC(=O)N2CCc3ccccc32)nnc1-c1ccncc1 | -49.8 |
